Results: publication PMC4336329 (PLoS ONE, 2015)
The whole screen tested about 310,000 compounds, of which about 14,000 (4.5%) showed an effect of 50% or more. Effects have a minus sign here. The list shows a part of the results.

These compounds were tested against human ether-à-go-go-related gene (hERG) potassium channel (human, UniProt Q12809) (assay: primary screen, population patch clamp on CHO cells stably expressing hERG).
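Further: peak tail current of the secondary pulse compared with the same well before compound.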

Sequence of human ether-à-go-go-related gene (hERG) potassium channel (Q12809 whole entry, looked up): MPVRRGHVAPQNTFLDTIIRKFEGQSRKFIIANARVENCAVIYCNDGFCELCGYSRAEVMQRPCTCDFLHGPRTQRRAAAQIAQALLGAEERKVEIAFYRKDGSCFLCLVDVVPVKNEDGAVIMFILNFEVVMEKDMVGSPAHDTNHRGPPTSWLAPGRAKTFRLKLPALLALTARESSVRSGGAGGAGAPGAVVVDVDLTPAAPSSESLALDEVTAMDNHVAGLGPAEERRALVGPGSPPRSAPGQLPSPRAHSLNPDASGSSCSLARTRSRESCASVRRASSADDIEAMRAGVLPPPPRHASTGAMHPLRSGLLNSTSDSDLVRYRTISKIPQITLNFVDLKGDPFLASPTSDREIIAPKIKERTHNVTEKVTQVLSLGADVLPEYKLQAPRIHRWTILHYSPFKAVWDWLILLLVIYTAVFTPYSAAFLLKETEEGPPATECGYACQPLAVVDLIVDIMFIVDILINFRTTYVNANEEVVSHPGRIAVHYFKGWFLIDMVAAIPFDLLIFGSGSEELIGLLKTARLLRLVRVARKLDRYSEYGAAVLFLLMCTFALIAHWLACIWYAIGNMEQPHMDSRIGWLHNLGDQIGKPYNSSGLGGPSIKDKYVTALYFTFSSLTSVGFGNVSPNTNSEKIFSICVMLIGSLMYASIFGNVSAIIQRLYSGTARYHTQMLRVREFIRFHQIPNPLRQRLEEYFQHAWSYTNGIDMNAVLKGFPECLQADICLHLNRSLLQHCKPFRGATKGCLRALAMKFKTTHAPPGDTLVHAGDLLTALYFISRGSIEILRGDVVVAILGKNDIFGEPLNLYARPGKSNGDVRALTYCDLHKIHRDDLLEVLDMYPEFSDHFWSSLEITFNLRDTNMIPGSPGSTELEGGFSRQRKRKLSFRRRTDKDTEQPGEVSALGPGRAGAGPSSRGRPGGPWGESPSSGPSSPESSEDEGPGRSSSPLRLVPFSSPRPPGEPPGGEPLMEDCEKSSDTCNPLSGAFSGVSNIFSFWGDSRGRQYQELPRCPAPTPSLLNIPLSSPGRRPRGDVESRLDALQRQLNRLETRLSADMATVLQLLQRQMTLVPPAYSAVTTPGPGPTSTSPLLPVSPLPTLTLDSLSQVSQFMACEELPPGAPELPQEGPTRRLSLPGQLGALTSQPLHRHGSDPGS

Going from `CC(C)Sc1nc(N)c2c3c(sc2n1)CN(C)CC3` to `Cc1cc(N2CCCC2)nc(SCC(=O)c2ccccc2)n1`, the “hERG current change (%, negative = inhibition) at 10uM” value rises from -34% to 9.08%.

Going from `Cc1ccc(C(=O)NC2CCN(S(=O)(=O)c3ccccc3F)CC2)cc1` to `O=C(NCC1CCN(S(=O)(=O)c2ccccc2)CC1)Nc1ccccc1`, the “hERG current change (%, negative = inhibition) at 10uM” value falls from 22% to 11.1%.

Going from `CC(=O)Nc1ccccc1C(=O)OCC(=O)c1ccc2ccccc2c1` to `CCNc1ccc(C(=O)OCC)cc1NC(=O)c1cccc(S(=O)(=O)N(C)c2ccccc2)c1`, the “hERG current change (%, negative = inhibition) at 10uM” value falls from 0.264% to -6.49%.

First: O=C(c1ccccc1)N1CCN(Cc2ccc3c(c2)OCO3)CC1
Second: COc1ccc(CN2CCN(C(=O)Cc3ccccc3)CC2)c(OC)c1
The “hERG current change (%, negative = inhibition) at 10uM” value of the first is higher: 11.5% for the first, -31.5% for the second.

Going from `CCN(C(=O)CCN1C(=O)S/C(=C\c2ccccc2)C1=O)C1CCS(=O)(=O)C1` (stereo not shown) to `O=C(CCCN1C(=O)/C(=C/c2ccccc2Cl)SC1=S)NNC(=O)c1cccnc1`, the “hERG current change (%, negative = inhibition) at 10uM” value rises from -15.9% to -10.7%.

Going from `Cc1ccc(S(=O)(=O)N(CCC#N)CCN2CCCC2)cc1` to `Cc1ccc(S(=O)(=O)NCCCn2ccnc2)cc1`, the “hERG current change (%, negative = inhibition) at 10uM” value rises from -21.9% to 5.87%.

Compared with `CC(C)[C@H](NC(=O)C1CC(=O)N(c2ccc3c(c2)OCCO3)C1)C(=O)NC1CCCC1` (stereo partly shown), `Cc1ccc(N2CC(C(=O)N3CCC(C(=O)Nc4nnc(C(C)C)s4)CC3)CC2=O)cc1` (stereo not shown) is lower in “hERG current change (%, negative = inhibition) at 10uM” value: 15.3% for the first, 10.7% for the second.

Compared with `N/C(=N\OC(=O)c1cccs1)c1ccc(Cl)cc1`, `COc1ccc2c(c1)c(CC(=O)OCC(=O)N(C)C)c(C)n2C(=O)c1ccc(Cl)cc1` is lower in “hERG current change (%, negative = inhibition) at 10uM” value: 6.63% for the first, -22.5% for the second.

First: Cc1cc(C)n(CC(O)COc2cccc(OCC(O)Cn3nc(C)cc3C)c2)n1 (stereo not shown)
Second: COc1cc(CNCCc2c[nH]c3ccccc23)cc(OC)c1.O=C(O)C(=O)O
The “hERG current change (%, negative = inhibition) at 10uM” value of the first is higher: 4.59% for the first, -43.9% for the second.

First: CC(C)c1nc(SCC(=O)N2CC(=O)Nc3ccccc32)c2ccccc2n1
Second: CC(=O)NCCCc1nc2ccccc2n1Cc1ccccc1C
The “hERG current change (%, negative = inhibition) at 10uM” value of the first is higher: 39.9% for the first, -3.63% for the second.

Going from `CN(C)c1ccc(C(C(=O)NCC2CCCO2)N(Cc2ccco2)C(=O)c2snc(C(N)=O)c2N)cc1` (stereo not shown) to `CN(C)c1cccc(C(=O)N2CCCC(C(=O)c3cc(F)ccc3F)C2)c1` (stereo not shown), the “hERG current change (%, negative = inhibition) at 10uM” value falls from 12.3% to 0.21%.

Going from `O=C(O)CCC(=O)NCc1ccc(C(=O)O)cc1` to `COc1ccc(CNC(=O)c2ccc(CN3CCOCC3)cc2)cc1`, the “hERG current change (%, negative = inhibition) at 10uM” value rises from 0.97% to 6.28%.

Going from `Cc1ccc(COn2c(-c3ccc(Cl)cc3)nc3ccc([N+](=O)[O-])cc32)cc1` to `CCCc1ccc(-c2cc(C(=O)N/N=C/c3ccc([N+](=O)[O-])o3)c3ccccc3n2)cc1`, the “hERG current change (%, negative = inhibition) at 10uM” value falls from 3.22% to -1.61%.

Going from `CCOc1ccc(CCNC(=O)COC(=O)c2cc(S(=O)(=O)N3CCOCC3)ccc2F)cc1OCC` to `COC(=O)CSc1nnc(CNC(=O)c2ccc(S(=O)(=O)N3CCOCC3)cc2)n1C`, the “hERG current change (%, negative = inhibition) at 10uM” value rises from -12.6% to 23.7%.

First: CCCCN(C)CCNC(=O)CCNC(=O)Cn1ccc2ccccc2c1=O
Second: COCCCNC(=O)CCCOc1ccccc1
The “hERG current change (%, negative = inhibition) at 10uM” value of the first is higher: 27% for the first, -5.81% for the second.

Going from `CC(C)C(NC(=O)c1ccc(F)cc1)C(=O)N1CCN(C(=O)c2ccco2)CC1` (stereo not shown) to `COc1cccc(C(=O)N2CCN(Cc3cc(Br)ccc3OC)CC2)c1.O=C(O)C(=O)O`, the “hERG current change (%, negative = inhibition) at 10uM” value falls from -17% to -51.8%.

Compared with `COc1cc(/C=C2\SC(N3CCC(C)CC3)=NC2=O)ccc1O`, `COc1ccc(/C=C/C(=O)c2ccc(O)cc2)cc1CN1CCOCC1` is lower in “hERG current change (%, negative = inhibition) at 10uM” value: -5.99% for the first, -11.3% for the second.

Going from `Nc1nnc(SCC(=O)Nc2ccc3nc(SCC(=O)Nc4ccccc4)sc3c2)s1` to `COc1ccc(NC(=O)COC(=O)c2c3c(nc4ccccc24)CCCC3)cc1Cl`, the “hERG current change (%, negative = inhibition) at 10uM” value rises from -4.18% to 9.73%.

Going from `COc1ccc(CNC(=O)COc2ccc(S(=O)(=O)N3CCCCC3)cc2)cc1` to `CC(C)OCCCNC(=O)Cn1ccc2cc(S(=O)(=O)N3CCCCC3)ccc21`, the “hERG current change (%, negative = inhibition) at 10uM” value falls from 6.5% to -4.17%.

First: C=CCNCc1cc(=O)n2c(-c3ccccc3)csc2n1.O=C(O)C(=O)O
Second: CC1=C(C(=O)O)N2C(=O)C(NC(=O)c3ccccc3Cl)C2SC1 (stereo not shown)
The “hERG current change (%, negative = inhibition) at 10uM” value of the first is lower: 11.6% for the first, 12.8% for the second.

Going from `CCC(=O)NC(=S)Nc1cccc(C(C)=O)c1` to `CCOC(=O)c1cccc(NC(=O)c2cccnc2)c1`, the “hERG current change (%, negative = inhibition) at 10uM” value falls from -2.17% to -8.41%.

First: CCN(CC)c1ccc(S(=O)(=O)N2CCCCC2)cc1NC(=O)C1CSC2(C)CCC(=O)N12 (stereo not shown)
Second: Cc1ccc(S(=O)(=O)N(CC(=O)Nc2ccc(C(N)=O)cc2)C(=O)N2CCN(C)CC2)cc1
The “hERG current change (%, negative = inhibition) at 10uM” value of the first is lower: -32.1% for the first, -0.0686% for the second.

First: O=C(CCc1nnc2ccc(N3CCC4(CC3)OCCO4)nn12)NCc1ccccc1Cl
Second: COc1ccc(Br)cc1CNC(=O)C1CCCN(c2nc3ccccc3o2)C1 (stereo not shown)
The “hERG current change (%, negative = inhibition) at 10uM” value of the first is higher: 16.5% for the first, -17.9% for the second.

Compared with `CCn1cc(CNC(=O)NC2CCCCC2)c(C)n1`, `O=C(CCCn1c(=O)oc2ccccc21)NC1CCCCCC1` is lower in “hERG current change (%, negative = inhibition) at 10uM” value: 8.03% for the first, 1.07% for the second.

Going from `N#CC12C(N)=NC3(OCCO3)C1(C#N)C1=C(CCC1)NC2c1ccccc1` (stereo not shown) to `Cc1[nH][nH]c(=O)c1[C@@H](c1ccccc1[N+](=O)[O-])C(C#N)C#N`, the “hERG current change (%, negative = inhibition) at 10uM” value falls from 12.4% to 7.28%.

First: COc1cccc2sc3ccc(C#CC4(N)CCCCC4)cc3c(=O)c12
Second: COc1ccc(NC(=O)c2c(OC)cccc2OC)c(OC)c1
The “hERG current change (%, negative = inhibition) at 10uM” value of the first is lower: 9.26% for the first, 9.92% for the second.

First: CCCOC(=O)c1[nH]c2c(c1C)C(=O)CC(c1cccs1)C2 (stereo not shown)
Second: CCN1CC2=C(OC(N)=C(C#N)C2c2cccs2)/C(=C\c2cccs2)C1 (stereo not shown)
The “hERG current change (%, negative = inhibition) at 10uM” value of the first is higher: 11.3% for the first, -35% for the second.

First: CN1CCS/C1=C/C=C1\SC(=S)N(CC(=O)O)C1=O
Second: CCN1C(=O)/C(=C/C=C2\N(CC)c3cc(S(=O)(=O)N(C)C)ccc3N2c2ccccc2)SC1=S
The “hERG current change (%, negative = inhibition) at 10uM” value of the first is higher: 5.2% for the first, 0.17% for the second.

Compared with `CCSc1nc(C(F)(F)F)cc(=O)n1-c1ccccc1`, `Cc1[nH]n(-c2ccccc2)c(=O)c1CCO` is higher in “hERG current change (%, negative = inhibition) at 10uM” value: -3.32% for the first, 13.7% for the second.

Compared with `O=C(COc1ccccc1[N+](=O)[O-])Nc1ccc(CN2CCOCC2)cc1`, `O=[N+]([O-])c1ccc(CN2CCN(Cc3c[nH]c4ccccc34)CC2)cc1` is lower in “hERG current change (%, negative = inhibition) at 10uM” value: -28.2% for the first, -77.8% for the second.

Going from `COc1cc2cc(CCOC(=O)N3CCCCC3)oc(=O)c2cc1OC` to `COc1ccc(CCN=C(N)NS(=O)(=O)c2ccc(C)cc2)cc1OC`, the “hERG current change (%, negative = inhibition) at 10uM” value rises from 5.38% to 6.05%.

First: O=C(CN1C(=O)NC2(CCCCCC2)C1=O)NCc1ccco1
Second: Cc1cc(C)c2cc(C#N)c(SCC(=O)NCc3ccco3)nc2c1
The “hERG current change (%, negative = inhibition) at 10uM” value of the first is higher: 23.9% for the first, 5.93% for the second.

Compared with `CC1CCc2c(C(=O)NCCN3CCOCC3)csc2C1` (stereo not shown), `O=C(c1cc(-c2cccc(Cl)c2)on1)N1CCOCC1` is lower in “hERG current change (%, negative = inhibition) at 10uM” value: 8.2% for the first, 1.33% for the second.

Going from `CC(C)CC(=O)Nc1nnc(-c2ccco2)s1` to `Cn1c(SCC(=O)NCc2cccs2)nnc1-c1ccncc1`, the “hERG current change (%, negative = inhibition) at 10uM” value rises from -11.5% to 9.54%.

Compared with `O=C(CC1Nc2ccccc2NC1=O)Nc1ccc2c(c1)OCO2` (stereo not shown), `O=C1c2ccccc2NC(c2ccc3c(c2)OCO3)N1O` (stereo not shown) is higher in “hERG current change (%, negative = inhibition) at 10uM” value: 15.9% for the first, 16.1% for the second.

First: Cl.NC(CCC(=O)O)C(=O)O (stereo not shown)
Second: O=C(CSc1nnc(-c2ccncc2)n1-c1ccc(F)cc1)NC(=O)NCc1ccco1
The “hERG current change (%, negative = inhibition) at 10uM” value of the first is higher: 18.8% for the first, -30.9% for the second.

First: O=C(Nc1cc(Cl)ccc1O)C1CC(c2ccccc2Cl)=NO1 (stereo not shown)
Second: Cc1cccc2c1Sc1ccccc1CC2=O
The “hERG current change (%, negative = inhibition) at 10uM” value of the first is higher: 20.3% for the first, 0.0655% for the second.

Compared with `COc1ccc(-n2nc(C(=O)NCC(=O)NCC3COc4ccccc4O3)c3ccccc3c2=O)c(OC)c1` (stereo not shown), `COc1ccc(Oc2nc3c(c(=O)n(C)c(=O)n3C)n2Cc2cccc(OC)c2)cc1` is higher in “hERG current change (%, negative = inhibition) at 10uM” value: -34.3% for the first, -1.66% for the second.

First: COCCSc1nnc(NC(=O)C2CCCO2)s1 (stereo not shown)
Second: Cc1ccc(OCCSc2nnc(-c3cccs3)n2C)cc1
The “hERG current change (%, negative = inhibition) at 10uM” value of the first is higher: 8.75% for the first, -37% for the second.

Going from `Cc1cc2cc(CNC(=O)c3ccc(Br)o3)ccc2[nH]1` to `O=C(NCc1ccc(F)cc1)C1CCCN(S(=O)(=O)c2cccc3nsnc23)C1` (stereo not shown), the “hERG current change (%, negative = inhibition) at 10uM” value rises from -14% to 11.2%.

Going from `CN(C)CCN(C(=O)c1ccc2ccccc2c1)c1nc2cc3c(cc2s1)OCCO3.Cl` to `COc1ccccc1CCC(=O)Nc1ccc2c(c1)CN(CCCn1cccn1)CC2`, the “hERG current change (%, negative = inhibition) at 10uM” value falls from 7.59% to -29.6%.

Going from `COc1ccc(C(=O)NNC(=O)c2ccc(S(=O)(=O)N3CC(C)OC(C)C3)cc2)cc1` (stereo not shown) to `COc1ccc(CCN=CC2=C(O)CC(C)(C)CC2=O)cc1`, the “hERG current change (%, negative = inhibition) at 10uM” value falls from 17.8% to 16.6%.

Compared with `COc1cc(NC(=S)Nc2cccnc2)cc(OC)c1OC`, `Cc1ccc(C2CC(c3ccccc3Cl)n3nc(N)nc3N2)cc1` (stereo not shown) is lower in “hERG current change (%, negative = inhibition) at 10uM” value: 15.6% for the first, 2.3% for the second.

Compared with `CC(C)c1ccc(/C=C/C(=O)N2CCOCC2)cc1`, `Nc1nc(SCC(=O)Nc2ccc(Cl)c(S(=O)(=O)N3CCOCC3)c2)n[nH]1` is lower in “hERG current change (%, negative = inhibition) at 10uM” value: 7.48% for the first, 0.0508% for the second.
